Not every detail of the peptide structures is certain; ends, links or a residue may be inferred. Ends that are not written are not given here.
Legend:
[1] = system: r-Ag5 specific spleen cells from C57B1/6 mice; assay: In vitro proliferation assay, spleen cells of r-Ag5-immunized C57B1/6 mice; format: cell-based; settings: spleen cells from mice immunized 5 times with rAg5; blank 1050 cpm
Experimental: FIG. 14. Stimulation index profile of CS7B1/6 mice spleens after 5 immunizations with r-Ag5. In vitro proliferation assays were performed with peptides at three concentrations: 1×10^-5 M (open bar), 1.25×10^-6 M ("uphill" hatch), and 1.56×10 ^-7 M ("downhill" hatch). The corresponding concentrations of recombinant Antigen 5 were 1.0×10^-6 M, 1.25×10^-7, and 1.56×10^-8 M. The blank was 1050 cpm.
(§1) The peptides of the invention can be tested in a proliferation assay for T cell responses. Generally, lymphocytes from a sensitized host are obtained. The host can be a mouse that has been immunized with a vespid venom antigen 5, or with a crossreactive protein, such as testes specific protein. Using techniques that are well known in the art, T lymphocyte response to the peptide can be measured in vitro. In a specific embodiment, infra, T cell responses are detected by measuring incorporation of ^3 H-thymidine, which increases with DNA synthesis associated with proliferation. Cell proliferation can also be detected using an MTT assay [Mossman, J. Immunol. Methods, 65:55-63,(1983); Niks and Otto, J. Immunol. Methods, 130:140-151 (1990)]. Alternatively, lymphokine production assays can be practiced according to the present invention. In one embodiment, lymphokine production can be assayed using immunological or co-stimulation assays [see, e.g., Fehlner et al., J. Immunol., 146:799 (1991)] or using the ELISPOT technique [Czerkinsky, et al., J. Immunol. Methods, 110:29 (1988)]. Alternatively, mRNA for lymphokines can be detected, e.g., by amplification [see Brenner, et al., Biotechniques, 7:1096 (1989)] or in situ hybridization [see, e.g., Kasaian and Biron, J. Immunol., 142:1287 (1989)]. Of particular interest are those individuals whose T cells produce lymphokines associated with IgE isotype switch events, e.g., IL-4 and IL-5 [Purkeson and Isakson, J. Exp. Med., 175:973-982 (1992)]. Also of interest are the peptide fragments of the vespid venom antigen 5 that contain epitopes recognized by T cells involved in IgE switch events. Any method for detecting T cell proliferation known in the art can be used with the immunodominant vespid antigen 5 peptides obtained according to the present invention.
(§2) In the present Example, a series of 15 to 20-residue peptides with 10-residue overlaps to encompass the entire white faced hornet Ag5 molecule (form 2) was synthesized. These peptides were used for mapping T cell epitopes of hornet Ag5 by their stimulation of specific murine spleen cells immunized with native or recombinant Antigen 5. These peptides were also used to study the cross reacting T cell epitopes of hornet antigen 5 and a mouse testis protein Tpx [Mizuku et al., Mammalian Genome, 3:274-280 (1992)].

[2] = system: Ag5 specific spleen cells from BALB/c mice; assay: In vitro proliferation assay, spleen cells of Ag5-immunized BALB/c mice; format: cell-based
Experimental: (§3) FIG. 4. Stimulation index profile of BALB/c mice spleens after 4 immunizations with natural (n)-Ag5. In vitro proliferation assays were performed with peptides at three concentrations: 1×10^-5 M (open bar), 1.25×10^-6 M ("uphill" hatch), and 1.56×10^-7 M ("downhill" hatch). The corresponding concentrations of recombinant antigen 5 control were 1.0×10^-6 M, 1.25×10^-7, and 1.56×10^-8 M. The blank was 2200 cpm.
as §3, with “5.” for “4.”, “recombinant (r)-Ag5.” for “natural (n)-Ag5.”, “Antigen” for “antigen”, “5” for “5 control”, “4700” for “2200”
FIG. 6. […] In vitro proliferation assays were performed with peptides at three concentrations: 1×10^-5 M (open bar), 1.25×10^-6 M ("uphill" hatch), and 1.56×10^-7 M ("downhill" hatch). The corresponding concentrations of recombinant Antigen 5 were 1.0×10^-6 M, 1.25×10^-7, and 1.56×10^-8 M. […]
as §1, §2
T cell response in BALB/c mice to natural hornet Ag5 and its recombinant protein or fragments. FIGS. 4 and 5 show the proliferative responses of spleen cells from BALB/c mice immunized 4 times with n- and r-Ag5 respectively. […] Previous studies have shown that r-Ag5 lacks the discontinuous B cell epitopes of n-Ag5, as r-Ag5 is not properly folded with the disulfide bonds of n-Ag5 [King et al., J. Immunol., 154:577-584 (1995)]. […] Higher proliferative responses were observed than those in FIG. 5, where mice were immunized 4 times with r-Ag5. […]

Sequence: IEDNWYTHYLVCNYGPGGND [Peptide 18]
- Stimulation Index C57B1/6 [1]: 2.7
- stimulation indices (FIG. 4-6 together) ([2]; BALB/c mice immunized 4 times with n-Ag5 or with r-Ag5): ≥ 4
- Stimulation Index BALB/c ([2]; spleen cells from mice immunized with rAg5, blank 3970 cpm): 17.7
